# According to PubChem BioAssay AID1508624 (National Center for Advancing Translational Sciences (NCATS), 2021):
# Screen size: about 48,000 compounds; about 120 (0.25%) were called active. About 4% were inconclusive and are not listed. Calls follow the shape of the dose curve; as a rule, active = well fitted activation curve with a large enough effect; inconclusive = small, poorly fitted or top-dose-only effect, or another doubt; inactive = no such curve, though single readings can be large or run the other way. Some of the results follow.
# Assay: Primary qHTS for Identification of Small Molecule Activators of Huntingtin-Antisense Promoter Activity; also: nearly all actives have a fitted effect of over 55% in size
# Settings: HEK293 HTT-AS promoter firefly luciferase reporter (activity 0% = vehicle and -100% = no light), 24 h; series mostly up to 57.5 µM; activity change, positive = activation: at the top concentration
# Outline: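 Quantitative HTS used concentration series of up to 57.5 uM final on HEK293 luciferase reporter cells, 24 h at 37 degrees C. Readout was Dual-Glo firefly luminescence.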
row,Compound,"activity change, positive = activation"
1,CC(C)Cn1c(=O)c2ccccc2n2c(-c3cccc(Cl)c3)nnc12,inactive: 20.8%
2,COc1ccc(Cl)c(Cn2c(NCCN)nc3c2c(=O)n(C)c(=O)n3C)c1,inactive: 17%
3,COc1ccc(C(=O)NCc2nnnn2-c2ccc(C)c(C)c2)cc1,inactive: -14.8%
4,CCN(CC)CCn1c(=O)c(Cc2ccc(OC)cc2)nc2ccccc21,inactive: -7.52%
5,Fc1ccccc1N1CCN(c2nnc(C(F)(F)F)c3nnn(Cc4ccccc4)c23)CC1,inactive: -5.86%
6,O=C(Cn1c(SCCOc2ccccc2Cl)nc2ccccc21)N1CCOCC1,inactive: -8.15%
7,COc1ccc2c(CNCc3ccco3)c(C(=O)O)n(Cc3ccc(F)cc3Cl)c2c1,inactive: -18%
8,COc1ccc(CCNc2ncnc3c2nnn3C)cc1OC,inactive: -10.6%
9,CCc1ccc(NC(=O)CSc2nc(-c3ccccc3)no2)cc1,inactive: 16.7%
10,CN(C)S(=O)(=O)N(CC(=O)Nc1ccc(Br)cc1F)c1ccccc1,inactive: -17%
11,CCC(C)NS(=O)(=O)c1ccc(N2CCCCS2(=O)=O)cc1 (configuration not stated),inactive: -26.7%
12,COc1ccc(C)cc1NC(=O)C1CCCN(S(=O)(=O)c2ccc3c(c2)CCCN3C(C)=O)C1 (configuration not stated),inactive: -27.6%
13,COc1cccc2c1cc1c(=O)n(CC(=O)N3CCCCC3)nc(C)n12,inactive: -7.65%
14,Cc1ccc(C(=O)Nc2ccc(C(=O)O)cc2)cc1S(=O)(=O)Nc1ccccc1,inactive: 3.32%
15,Cc1ccc(-n2c3c(c(=O)[nH]c2=O)C(NS(=O)(=O)c2ccc(Cl)cc2)(C(F)(F)F)C(=O)N3)cc1 (configuration not stated),inactive: -17.2%
16,NC(=O)C1CCN(c2ncnc3c2cnn3-c2ccccc2)CC1,inactive: -32.2%
17,O=c1c2oc3ccccc3c2n(Cc2ccc(Cl)cc2)c(=O)n1Cc1ccc2c(c1)OCO2,inactive: -22%
18,COCCNC(=O)CSc1nc2cc3c(cc2c(=O)n1CCCC(=O)NCCc1ccc(OC)c(OC)c1)OCO3,inactive: -3.98%
19,CCC(CC)C(=O)Nc1nnc(SCc2cc(=O)c3ccccc3[nH]2)s1,inactive: -45.3%
20,CCC(C)(C)NC(=O)C1CCC(CNS(=O)(=O)c2ccc3c(c2)CC(C)N3C(C)=O)CC1 (configuration not stated),inactive: -24.3%
21,CCOCCCNC(=O)CN1C(=O)c2cccnc2Sc2ccccc21,inactive: -9.76%
22,CCCCNC(=O)CCCN1C(=O)CCn2nc(-c3cccn3C)cc21,inactive: -4.59%
23,COc1cccc(NC(=O)Cn2c(=O)n(-c3cccc(OC)c3)c(=O)c3sc4ccccc4c32)c1,inactive: -28.4%
24,Cc1ccc(Cl)cc1N1CCN(C2(c3ccccc3)C(=O)c3ccccc3C2=O)CC1,inactive: -11.9%
25,Cc1ccccc1Cn1c(=O)n(Cc2ccco2)c(=O)c2oc3ccccc3c21,inactive: -15.3%
26,COc1ccc(Nc2ncc(C(=O)N3CCN(c4ccc(OC)cc4)CC3)c3ccccc23)cc1,inactive: -38.5%
27,O=C(c1ccc2c(c1)CCN2S(=O)(=O)c1ccc(Cl)cc1)N1CCN(c2ccccc2F)CC1,inactive: -12.8%
